To fix the notation:
B1: UUGCAGG (DNA:RNA)
RNA: GGGAGACCGGAAUUCAGAUUGUCCUUGCAGGUUAAAUCCCGUCGUAGCCACCA
DNA 1: CAATCTGAATTCCGGTCTCCC
DNA 2: TGGTGGCTACGACGGGATT
B2: GGGCCUA (DNA:RNA)
RNA: B1 RNA with U25G, U26G, A29C, G30U, G31A
DNA 1: CAATCTGAATTCCGGTCTCCC
DNA 2: TGGTGGCTACGACGGGATT
B3: CACCACC (DNA:RNA)
RNA: B1 RNA with U25C, U26A, G27C, G30C, G31C
DNA 1: CAATCTGAATTCCGGTCTCCC
DNA 2: TGGTGGCTACGACGGGATT
B4: CCAGUCA (DNA:RNA)
RNA: GGGAGACCGGAAUUCAGAUUGUCCCCAGUCAUUAAAUCCCGUCGUAGCCACCA
DNA 1: CAATCTGAATTCCGGTCTCCC
DNA 2: TGGTGGCTACGACGGGATT
B5: CCGGAUU (DNA:RNA)
RNA: B4 RNA with A27G, U29A, C30U, A31U
DNA 1: CAATCTGAATTCCGGTCTCCC
DNA 2: TGGTGGCTACGACGGGATT
B6: CCUCUCC (DNA:RNA)
RNA: B4 RNA with A27U, G28C, A31C
DNA 1: CAATCTGAATTCCGGTCTCCC
DNA 2: TGGTGGCTACGACGGGATT
B7: UAGCACU (DNA:RNA)
RNA: B1 RNA with U26A, G30C, G31U
DNA 1: CAATCTGAATTCCGGTCTCCC
DNA 2: TGGTGGCTACGACGGGATT
B8: CACACAU (DNA:RNA)
RNA: B4 RNA with C26A, A27C, G28A, U29C, C30A, A31U
DNA 1: CAATCTGAATTCCGGTCTCCC
DNA 2: TGGTGGCTACGACGGGATT
B9: CGGCACC (DNA:RNA)
RNA: B1 RNA with U25C, U26G, G30C, G31C
DNA 1: CAATCTGAATTCCGGTCTCCC
DNA 2: TGGTGGCTACGACGGGATT
B10: UAUCGGG (DNA:RNA)
RNA: B1 RNA with U26A, G27U, A29G
DNA 1: CAATCTGAATTCCGGTCTCCC
DNA 2: TGGTGGCTACGACGGGATT
B11: CAAGAAU (DNA:RNA)
RNA: B4 RNA with C26A, U29A, C30A, A31U
DNA 1: CAATCTGAATTCCGGTCTCCC
DNA 2: TGGTGGCTACGACGGGATT
B12: GUGUGCC (DNA:RNA)
RNA: B1 RNA with U25G, C28U, A29G, G30C, G31C
DNA 1: CAATCTGAATTCCGGTCTCCC
DNA 2: TGGTGGCTACGACGGGATT
B13: AUACUCA (DNA:RNA)
RNA: B4 RNA with C25A, C26U, G28C
DNA 1: CAATCTGAATTCCGGTCTCCC
DNA 2: TGGTGGCTACGACGGGATT
B14: ACGCCUA (DNA:RNA)
RNA: B4 RNA with C25A, A27G, G28C, U29C, C30U
DNA 1: CAATCTGAATTCCGGTCTCCC
DNA 2: TGGTGGCTACGACGGGATT
B15: AAAAUUU (DNA:RNA)
RNA: B4 RNA with C25A, C26A, G28A, C30U, A31U
DNA 1: CAATCTGAATTCCGGTCTCCC
DNA 2: TGGTGGCTACGACGGGATT
B16: GGGAGUU (DNA:RNA)
RNA: B1 RNA with U25G, U26G, C28A, A29G, G30U, G31U
DNA 1: CAATCTGAATTCCGGTCTCCC
DNA 2: TGGTGGCTACGACGGGATT
B17: CGUAUUU (DNA:RNA)
RNA: B4 RNA with C26G, A27U, G28A, C30U, A31U
DNA 1: CAATCTGAATTCCGGTCTCCC
DNA 2: TGGTGGCTACGACGGGATT
B18: CAAUGGG (DNA:RNA)
RNA: B4 RNA with C26A, G28U, U29G, C30G, A31G
DNA 1: CAATCTGAATTCCGGTCTCCC
DNA 2: TGGTGGCTACGACGGGATT
B19: CUACAUU (DNA:RNA)
RNA: B1 RNA with U25C, G27A, G30U, G31U
DNA 1: CAATCTGAATTCCGGTCTCCC
DNA 2: TGGTGGCTACGACGGGATT
B20: GUCGUUG (DNA:RNA)
RNA: B4 RNA with C25G, C26U, A27C, C30U, A31G
DNA 1: CAATCTGAATTCCGGTCTCCC
DNA 2: TGGTGGCTACGACGGGATT

The text below walks through data of paper PMC9911399, “Two distinct binding modes provide the RNA-binding protein RbFox with extraordinary sequence specificity”.

Changes are numbered by the printed parent chain; changes in the protein carry UniProt numbers. The list shows a part of the results.

In this experiment the target is T1, RBFOX1 RRM (Homo sapiens, UniProt Q9NWB1 109-208).
T1 sequence: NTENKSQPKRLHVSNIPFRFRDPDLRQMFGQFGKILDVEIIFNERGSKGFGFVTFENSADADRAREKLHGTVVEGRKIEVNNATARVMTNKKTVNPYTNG
Put plainly: EMSA; HiTS-Eq, 1 nM pool, 10 min; buffer printed only for the single-RNA assays: 10 mM Tris pH 7.5, 150 mM NaCl, 3.4 mM EDTA, 0.001% NP-40, 30 C. The conditions noted are these: tags: His6 N-terminal (pET28a); label: 5' 32P. A digest of the protocol: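 Purified RbFox RRM, wild type or mutant, was incubated for 10 min in 50 µL with 1 nM of a 5′-radiolabelled RNA pool carrying 7 randomized nucleotides, whose flanks were annealed to DNA oligonucleotides, over a series of increasing protein concentrations. Unbound RNA was resolved on 8% native PAGE, cut out, reverse-transcribed, barcoded by PCR and sequenced on an Illumina HiSeq 2500. Relative association constants were derived from changes in read counts for each RNA species versus the control reaction and normalised to the cognate motif.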
In general terms: In EMSA bound probe runs differently from free probe, usually more slowly.
As for B1, the binding signal was 0.0144 KA relative to UGCAUGU.

As for B2, the binding signal was 0.0089 KA relative to UGCAUGU.

As to B3, the binding signal is 0.00141 KA relative to UGCAUGU.

With B4, the binding signal is 0.00658 KA relative to UGCAUGU.

Regarding B5, the binding signal was 0.00966 KA relative to UGCAUGU.

As to B6, the binding signal is 0.00489 KA relative to UGCAUGU.

Regarding B7, the binding signal is 0.00975 KA relative to UGCAUGU.

Regarding B8, the binding signal was 0.000433 KA relative to UGCAUGU.

For the molecule B9, the binding signal was 0.0105 KA relative to UGCAUGU.

For the molecule B10, the binding signal was 0.00336 KA relative to UGCAUGU.

B11: the binding signal is 0.00351 KA relative to UGCAUGU.

As for B12, the binding signal was 0.0136 KA relative to UGCAUGU.

For the molecule B13, the binding signal was 0.00119 KA relative to UGCAUGU.

Take B14: the binding signal is 0.00104 KA relative to UGCAUGU.

With B15, the binding signal is 0.00108 KA relative to UGCAUGU.

Take B16: the binding signal was 0.0324 KA relative to UGCAUGU.

For the molecule B17, the binding signal is 0.00693 KA relative to UGCAUGU.

As for B18, the binding signal was 0.00655 KA relative to UGCAUGU.

Turning to B19, the binding signal is 0.00206 KA relative to UGCAUGU.

As to B20, the binding signal was 0.0222 KA relative to UGCAUGU.
